PubChem BioAssay AID485294 (National Center for Advancing Translational Sciences (NCATS), 2010)
Among all 370,000 compounds or so, about 150 (0.041%) were called active. Inconclusive means that the source gave no clear call. Such entries were picked first, then a sample of the others. The call rests on the fitted dose curve; in most records, active means well fitted inhibition curve with a large enough effect; inconclusive means small, poorly fitted or top-dose-only effect; inactive means flat fitted curve, though single readings scatter. Potencies of inconclusive entries are left out as doubtful fits.

Target: Beta-lactamase (Escherichia coli (strain K12)) (UniProt P00811)
Experiment: qHTS Inhibitors of AmpC Beta-Lactamase (assay with detergent); further: nearly all actives have a fitted effect of over 25% in size;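 on activity change, negative = inhibition: 0% = no-compound wells and -100% = no-enzyme wells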
Conditions: AmpC hydrolysis of nitrocefin, absorbance 480 nm, 0.01% Triton; activity change, negative = inhibition: at 114 µM (top of the series)
How it was run: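 AmpC (5.3 nM in the dispensed reagent) in 20 mM phosphate pH 7.0 with 0.01% (detergent screen) or 0.0001% Triton X-100 was preincubated with compounds for 15 min at room temperature. Nitrocefin was then added from an 800 uM solution, and hydrolysis was followed at 480 nm.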
Potency means the concentration at half of the fitted maximal effect; tags describe the fitted curve by direction and shape.

Chain of UniProt P00811 (P00811 whole entry, looked up): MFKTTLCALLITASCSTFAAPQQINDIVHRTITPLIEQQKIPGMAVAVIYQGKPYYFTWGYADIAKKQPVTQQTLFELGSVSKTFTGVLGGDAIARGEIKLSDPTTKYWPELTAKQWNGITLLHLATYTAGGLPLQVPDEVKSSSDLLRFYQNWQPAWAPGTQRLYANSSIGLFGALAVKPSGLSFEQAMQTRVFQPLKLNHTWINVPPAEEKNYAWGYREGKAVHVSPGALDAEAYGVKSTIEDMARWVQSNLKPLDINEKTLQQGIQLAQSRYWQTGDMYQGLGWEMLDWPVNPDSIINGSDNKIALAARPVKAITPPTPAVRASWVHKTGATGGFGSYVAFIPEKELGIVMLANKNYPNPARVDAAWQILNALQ

SMILES | Potency | activity change, negative = inhibition
COc1ccc(C(=O)OCC(=O)NCc2ccco2)cc1OC | inconclusive [inhibitor, full curve, poor fit] | 
Cc1ccc(-c2nc(C3CCN(S(C)(=O)=O)CC3)no2)cc1 | inconclusive [inhibitor, single point] | 
COc1ccc(-c2csc(=Nc3ccccc3)n2CCO)cc1 | inconclusive [inhibitor, partial curve] | 
COc1cccc(C(C(=O)NC2CCCCC2)N(C(=O)c2cccs2)c2ccc3c(c2)OCO3)c1 (centres undefined) |  | inactive: 0.621%
C/C=C(/C)C(=O)O[C@@H]1[C@H](OC(=O)C=C(C)C)c2c(ccc3ccc(=O)oc23)OC1(C)C | inconclusive [inhibitor, partial curve] | 
O=C(CNC(=O)c1cccc(Br)c1)N/N=C/c1cccs1 | inconclusive [inhibitor, full curve, poor fit] | 
O=C(CNC(=O)C1CCCCC1)Nc1ccc(Cl)cc1 | inconclusive [inhibitor, full curve, poor fit] | 
Cc1ccc(NC(=O)Cn2sc3nc(C)cc(C)c3c2=O)c(Cl)c1 | inconclusive [inhibitor, partial curve] | 
CC(=O)c1ccc(OCCCC(=O)N(CCC2=CCCCC2)c2c(N)n(Cc3ccccc3)c(=O)[nH]c2=O)cc1 | inconclusive [inhibitor, full curve, poor fit] | 
Cc1ccc(S(=O)(=O)NC(=O)Nc2nnc(C3CC3)s2)cc1 |  | inactive: 1.52%
COc1cc(-c2nnc(NC(=O)CCS(=O)(=O)c3ccccc3)o2)cc(OC)c1OC |  | inactive: 5.23%
O=C(NCC(c1ccco1)N1CCN(c2ccc(F)cc2)CC1)c1cccs1 (centres undefined) | inconclusive [inhibitor, partial curve, poor fit] | 
O=C(NCCSc1ccccc1)c1ccccc1Cl | inconclusive [inhibitor, single point] | 
Cc1ccc(NC(=O)CSCC(=O)Nc2ccccc2N2CCCC2)cc1 | inconclusive [inhibitor, full curve, poor fit] | 
Cc1ccc(-c2nc(C)sc2CC(=O)NCc2ccco2)cc1 |  | inactive: -14.8%
Cc1ccc(C(=O)COC(=O)CNC(=O)c2ccco2)cc1 | inconclusive [inhibitor, partial curve] | 
CC(=O)NC1=NN(C(C)=O)C(C)(CCS(=O)(=O)c2ccc(Cl)c(Cl)c2)S1 (centres undefined) | inconclusive [inhibitor, single point] | 
CCOc1cccc(C(=O)Nc2ccc(N(CC)CC)cc2)c1 | inconclusive [inhibitor, partial curve, poor fit] | 
CC(OC(=O)c1ccc(-n2cnnn2)cc1)C(=O)Nc1ccccc1F (centres undefined) | inconclusive [inhibitor, full curve, poor fit] | 
Cc1ccc(C(=O)N/C(=C/c2cccs2)C(=O)NCc2ccco2)cc1 | inconclusive [inhibitor, single point] | 
Cc1c(Br)cc(C(=O)OC2CCN(C)CC2)c(C)c1C | inconclusive [inhibitor, full curve, poor fit] | 
Cc1ccc(C)n1-c1ccc(N2CCOCC2)c(Br)c1 | inconclusive [inhibitor, full curve, poor fit] | 
CCC(C(=O)NC1CCCC1)n1c(SCc2cccc(C)c2)nc2ccncc21 (centres undefined) | inconclusive [inhibitor, full curve] | 

SMILES | Potency | activity change, negative = inhibition
Cc1cc(OCc2ccccc2)ccc1/C(O)=C1/C(=O)C(=O)N(Cc2cccnc2)C1c1ccncc1 (centres undefined) |  | inactive: -3.48%
Cc1ccccc1S(=O)(=O)Cc1ccc(C(=O)NCc2ccccc2Cl)o1 |  | inactive: -10.8%
CSC1=N/C(=C\c2ccccc2Cl)C(=O)N1N(C)C |  | inactive: 2.18%
Cn1cc(-c2cc3n(n2)CCC(=O)N3CCCC(=O)Nc2ccccc2Cl)c2ccccc21 |  | inactive: 15.9%
COc1ccc(C(=O)Oc2ccc(/C=N/NC(=O)c3ccccc3OC)cc2[N+](=O)[O-])cc1 |  | inactive: 0.0589%
CCCC(O)(CCC)C(=O)NN(C(=O)OC)c1ccccc1 | inconclusive [inhibitor, single point] | 
CC(=O)c1cccc(CN2CCC(C(=O)Nc3ccc(-c4cccc(C)c4)cc3)CC2)c1 | inconclusive [inhibitor, full curve] | 
CCSc1nc(O)cc(=O)n1CC | inconclusive [inhibitor, single point] | 
COc1ccc(CNC(=O)C2CCN(S(=O)(=O)c3c(C)noc3/C=C/c3cccs3)CC2)cc1 |  | inactive: 0.593%
COc1cccc(C2CC(c3cccc(Br)c3)n3nc(N)nc3N2)c1 (centres undefined) | inconclusive [inhibitor, full curve, poor fit] | 
CC(C(=O)NCc1cccc(Br)c1)n1ncn2cccc2c1=O (centres undefined) |  | inactive: 15.8%
Cn1cnc2c(NCc3ccco3)ncnc21 | inconclusive [inhibitor, full curve, poor fit] | 
COCCCn1c(=O)c2sccc2n(Cc2ccccc2)c1=O | inconclusive [inhibitor, partial curve, poor fit] | 
O=C(NNC(=O)C1CCN(S(=O)(=O)c2cccc(C(F)(F)F)c2)CC1)C1CC1 |  | inactive: 0.472%
Brc1ccc(-c2ccc(CNCc3ccccn3)o2)cc1 | inconclusive [inhibitor, full curve, poor fit] | 
CCn1c(C)nc2cc(C(=O)N/N=C(\C)c3ccc(N4CCOCC4)cc3)ccc21 | inconclusive [inhibitor, full curve, poor fit] | 
CC(=O)N[C@@H](CC(=O)N[C@H](CCC(=O)O)C(=O)O)C(=O)O | inconclusive [inhibitor, partial curve, poor fit] | 
Cc1ccccc1CS(=O)(=O)c1ncc(Cl)c(C(=O)Nc2nnc(C(C)C)s2)n1 |  | inactive: 9.95%
CCc1ccc(CNC(=O)C2CCN(C(=O)c3ccc(-n4ccc5ccccc54)s3)CC2)cc1 |  | inactive: -7.2%
CCOc1ccc(CN(CC)C(=O)Cc2c[nH]c3ccccc23)cc1OC | inconclusive [inhibitor, single point] | 
Nc1c(C(=O)N/N=C/c2ccc(Cl)cc2)cnn1-c1ccccc1 |  | inactive: 1.81%
O=C(O)CCCCC1CCSS1 (centres undefined) | active: 50.1 µM | 
Nc1nc(Nc2ccccc2Br)nc(C(F)(F)F)n1 | inconclusive [inhibitor, full curve, poor fit] | 

SMILES | Potency | activity change, negative = inhibition
COc1ccc2sc(-c3ccccc3OC)c(-c3ccc(OC)c(F)c3)c2c1 |  | inactive: 9.76%
COc1cc2cc(C)c(SCC(=O)N3CCN(C(=O)c4ccco4)CC3)nc2cc1OC | inconclusive [inhibitor, partial curve] | 
CCc1cccc(CC)c1NC(=O)C1CSC2(C)CCC(=O)N12 (centres undefined) | inconclusive [inhibitor, full curve, poor fit] | 
COc1ccc2c(C)c(CC(=O)N3C[C@H]4C[C@@H](C3)c3cccc(=O)n3C4)c(=O)oc2c1OC | inconclusive [inhibitor, full curve, poor fit] | 
CN(CCOc1ccc(-c2ccn(S(=O)(=O)c3cccc4ccccc34)n2)cc1)c1ccccn1 |  | inactive: 4.51%
Cc1c(C(=O)O)sc2nc(/C=C/c3ccccc3OC(F)F)[nH]c(=O)c12 | inconclusive [inhibitor, full curve, poor fit] | 
Cc1ccc(C)c(SCC(=O)OCC(=O)NCCNC(=O)COC(=O)CSc2cc(C)ccc2C)c1 | inconclusive [inhibitor, partial curve] | 
Cc1ccccc1C(C(=O)NC1CCCCC1)N(C(=O)CNC(=O)c1ccco1)c1cccnc1 (centres undefined) | inconclusive [inhibitor, single point] | 
CC(NC(=O)c1ccco1)C(c1cccs1)N1CCN(c2ccccc2)CC1 (centres undefined) | inconclusive [inhibitor, full curve, poor fit] | 
CCOc1ccc(CCNC(=O)Cn2nc(CC)n3c(cc4c(OC)cccc43)c2=O)cc1OCC |  | inactive: 9.37%
CCOc1cc(NC(=O)c2ccccn2)c(OCC)cc1NC(=O)c1cccc(C)c1 |  | inactive: 8.12%
COc1ccc(C(Nc2ccccn2)c2c(NC(=O)c3ccco3)sc(C)c2C)cc1 (centres undefined) | inconclusive [inhibitor, full curve, poor fit] | 
Cc1onc(-c2ccccc2)c1C(=O)Nc1ccc(Cl)c(S(=O)(=O)N2CCOCC2)c1 |  | inactive: 1.58%
Cc1ccc2nc(-c3ccc(NC(=O)C4CCCO4)cc3)[nH]c2c1 (centres undefined) |  | inactive: -10.7%
CCOC(=O)CCc1c(C)nc(SCc2ccc(C(=O)O)cc2)c(C#N)c1C | inconclusive [inhibitor, full curve] | 
CCC(=O)C1=C(c2ccc(F)cc2)N(C(=O)CC)n2c(nnc2C2CCCCC2)S1 |  | inactive: 0.0141%
Cc1ccc(N2C(N)=NC(N)=NC23CCCC3)c(C)c1 | inconclusive [inhibitor, full curve, poor fit] | 
CCC(=O)OC1=CN(Cc2ccccc2)S(=O)(=O)c2ccccc21 |  | inactive: -5%
O=C(NCc1ccco1)C(c1ccccc1F)N(Cc1cccnc1)C(=O)Cn1nnc2ccccc21 (centres undefined) | inconclusive [inhibitor, full curve] | 
COc1ccc(OC)c(C(=O)C2COC(=O)C2)c1 (centres undefined) | inconclusive [inhibitor, full curve, poor fit] | 
COc1cccc2cc(/C(C)=N/Nc3nc(-c4cc(C)ccc4C)cs3)c(=O)oc12 |  | inactive: -5.65%
CCCC1=[N+](CC)CCn2c(C)ccc21 |  | inactive: -2.4%
O=C(NNC1=Nc2ccccc2SC1)c1ccccc1F |  | inactive: 1.05%
